# Reference: PubChem BioAssay AID1346428 (National Center for Advancing Translational Sciences (NCATS), 2018)
# The campaign covered roughly 48,000 compounds. About 1,200 (2.5%) were called active. Roughly 2% stayed inconclusive and do not appear here.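 The calls were made as follows: active = activation of at least 60% and not above a set upper limit (about 1 call in 100 departs from these limits); inconclusive = activation of 40% to 60%, or above that upper limit; inactive = activation under 40%.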 Some of the results follow.
# Molecular target: Probable G-protein coupled receptor 32 (Homo sapiens) (UniProt O75388)
# Assay: qHTS for Agonists of Human Resolvin D1 Receptor DRV1; also: 0% is about no effect
# Conditions: CHO-K1 GPR32 beta-arrestin PathHunter luminescence, 90 min; at 76.9 µM; hits give high values; zero percent set by DMSO-only wells
# In short: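 Engineered CHO-K1 line co-expressing GPR32-ProLink and EA-beta-arrestin. Compound treatment lasted 90 min at 37 °C. Luminescence was recorded after 1 h with substrate at ambient temperature, relative to DMSO basal wells.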
# Chain of UniProt O75388 (O75388 whole entry, looked up): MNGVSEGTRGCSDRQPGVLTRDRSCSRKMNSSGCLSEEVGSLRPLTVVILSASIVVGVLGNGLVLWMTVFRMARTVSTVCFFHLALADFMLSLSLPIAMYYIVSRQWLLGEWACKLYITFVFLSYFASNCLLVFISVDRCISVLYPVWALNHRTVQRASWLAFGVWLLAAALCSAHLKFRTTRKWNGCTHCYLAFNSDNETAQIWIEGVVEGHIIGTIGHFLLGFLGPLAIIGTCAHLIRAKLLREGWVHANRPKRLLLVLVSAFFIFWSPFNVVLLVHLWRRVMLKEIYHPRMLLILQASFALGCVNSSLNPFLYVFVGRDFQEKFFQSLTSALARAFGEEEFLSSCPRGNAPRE
row,Structure (SMILES),activation
1,O=C(Cn1cnc(S(=O)(=O)N2CCCC2)c1)Nc1ccccc1,inactive: -25.2%
2,CC(=O)Nc1ccc(NC(=O)C(Cc2ccccc2)N2Cc3ccccc3C2=O)cc1 (configuration not stated),inactive: -13.5%
3,Cc1cccc(N2CCN(C(=O)c3c(C)oc4nc(C)nc(N5CCCC5)c34)CC2C)c1 (configuration not stated),inactive: -15.6%
4,COc1ccc(CNC(=O)CCc2nc3cccnc3n2Cc2ccccc2)cc1,inactive: -8.82%
5,Cc1ccc(Cl)cc1N1CCN(C(=O)c2cn(C)c3ccc(S(=O)(=O)N(C)C4CCCCC4)cc3c2=O)CC1,inactive: -12.9%
6,CCOc1ccc(CCNC(=O)C(C)n2nc(C)n3c(cc4occc43)c2=O)cc1OCC (configuration not stated),inactive: -13.7%
7,COc1cccc(-n2c(SCC(=O)N3CCCCC3)nc3c([nH]c4ccccc43)c2=O)c1,inactive: -3.54%
8,COc1ccc(CC(=O)NC2CC(=O)N(c3ccc4c(c3)OCCO4)C2)cc1 (configuration not stated),inactive: -5.49%
9,CC(C)NC(=O)c1ccc(Cn2c(=O)c3cccn3c3cccnc32)cc1,inactive: -11.8%
10,CCOC(=O)c1c(NC(=O)C(C)Sc2cn(CCNC(=O)c3ccc(OC)c(OC)c3)c3ccccc23)sc2c1CCC2 (configuration not stated),inactive: -11.3%
11,CCOCCCn1c(=N)c(S(=O)(=O)c2ccc(C)cc2)cc2c(=O)n3ccccc3nc21,inactive: -14.5%
12,Nc1c(C(=O)Nc2cccc(Cl)c2)sc2nc3c(cc12)CN(Cc1ccccc1)CC3,active: 60.9%
13,COc1ccc2nc3sc(C(=O)Nc4cc(Cl)c(OC)cc4OC)cc3cc2c1,inactive: 4.74%
14,Cc1c(NC(=O)c2cc(-c3cccc(Cl)c3)on2)c(=O)n(-c2ccccc2)n1C,inactive: 14.7%
15,O=C(NCCC1=CCCCC1)c1ccc2c(c1)N(Cc1ccc(F)cc1)C(=O)c1ccccc1S2(=O)=O,inactive: 2.7%
16,O=C(CSc1nncn2c1cc1sccc12)Nc1ccccc1C(F)(F)F,inactive: -1.28%
17,COCCCNc1nc2c(-c3ccccc3)nnn2c2ccccc12,inactive: 6.85%
18,CCOCCCn1c(=N)c(C(=O)NCc2ccco2)cc2c(=O)n3ccccc3nc21,inactive: -23.6%
19,CO[C@]1(NC(=O)CSC(F)F)C(=O)N2C(C(=O)O)=C(CSc3nnnn3CCO)CO[C@H]21,inactive: 16.4%
20,CCOC(=O)c1c(C)oc2nc(C)nc(NCc3ccc(C)cc3)c12,inactive: -1.26%
21,CCN1CCN(Cc2c(O)ccc3c(=O)c(Oc4ccccc4Cl)c(C(F)(F)F)oc23)CC1,inactive: -6.39%
22,Cc1ccccc1C(=O)NCC(c1cccnc1)N1CCc2ccccc21 (configuration not stated),inactive: -18.7%
